Test results published in PubChem BioAssay AID1347073 (National Center for Advancing Translational Sciences (NCATS), 2019).
The campaign covered roughly 45,000 compounds. About 200 (0.44%) were called active. Another 7% or so got no clear call; they are omitted. Calls come from the whole dose curve; as a rule, active = well fitted activation curve with a large enough effect; inconclusive = small, poorly fitted or top-dose-only effect; inactive = no such curve, though single readings can be large or run the other way. Some of the results follow.

Assay: qHTS of TDP-43 Inhibitors: NCGC Sytravon Library Screen; note: 0% is about no effect; nearly all actives have a fitted effect of over 55% in size
Conditions: yeast TDP-43 toxicity rescue, BacTiter-Glo growth, 24 h; series mostly up to 46.1 µM; growth rescue (activation): at the top concentration
Procedure, shortened: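 TDP-43-expressing yeast, pregrown in raffinose, seeded at OD600 0.02 in galactose medium with compound for 24 hr at 30 deg C. Growth read by BacTiter-Glo luminescence, so rescue of toxicity appears as activation.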

SMILES	growth rescue (activation)
Cc1ccc(N/C=C/C(=O)c2ccccc2)cc1C	inactive: 3.65%
O=C(Cn1cnc2cc([N+](=O)[O-])ccc2c1=O)NCCc1ccc(F)cc1	inactive: 3.98%
N#Cc1ccccc1NC(=O)c1ccc2c(c1)OCO2	inactive: 15.1%
Cc1ccc(N2C(=O)[C@@H]3C(C(=O)C(c4ccccc4)c4ccccc4)=NN[C@@H]3C2=O)cc1	inactive: -27.7%
O=C(CSc1nncn1-c1ccccn1)Nc1cccc(Cl)c1	inactive: 5.64%
CCOC(=O)C1(C)CCCN1C(=O)c1cc(F)ccc1C (centres undefined)	inactive: -1.19%
O=Cc1ccc2ccc3cccnc3c2n1	inactive: -6.36%
Cc1nc2ccc(C(=O)N3CCN(c4ccccc4)CC3)cn2c1N(C)C(=O)CCc1ccccc1	inactive: 6.11%
O=C(CN1CCNC(=O)C1)NCCc1ccc(Cl)cc1Cl	inactive: -5.92%
CCOC(=O)N1CCN(Cc2nc3ccc([N+](=O)[O-])cc3c(=O)n2-c2ccc(OC)cc2OC)CC1	inactive: 16.6%
Cc1c(NC(=O)C(C)Sc2ncnc3ccccc23)c(=O)n(-c2ccccc2)n1C (centres undefined)	inactive: 3.73%
Cc1ccc(NC(=S)N(Cc2cccs2)Cc2cc3cc(C)ccc3[nH]c2=O)cc1	inactive: 14.8%
CCCC(=O)Nc1cc(S(=O)(=O)N2CCOCC2)ccc1N1CCCCC1	inactive: -3.07%
CSc1ccccc1OCc1cc(C(=O)NC(C)CCn2cccn2)no1 (centres undefined)	inactive: 17%
CCOc1ccc(NC(=O)CN2C(=O)NC(C)(c3ccc(OC(F)F)cc3)C2=O)cc1 (centres undefined)	inactive: 15.1%
COc1ccc(S(=O)(=O)NC(C)C(=O)NCc2cccnc2)cc1C (centres undefined)	inactive: 4.4%
CCOC(=O)C1(Cc2cccc(OC)c2)CCN(Cc2ccc(OC)c(OC)c2)CC1	inactive: 13.7%
O=C1CCC(C(=O)N2CCc3c(Cl)cccc3C2)CN1CCCN1CCOCC1 (centres undefined)	inactive: 16.7%
COc1cccc(N(C(=O)c2snc(C(N)=O)c2N)C(C(=O)NCc2ccccc2)c2ccc(O)cc2)c1 (centres undefined)	inactive: 15.9%
CC1Cc2cc(/C=C3/SC(=S)N(C)C3=O)ccc2O1 (centres undefined)	inactive: 1.96%
O=C(N/N=C/c1cccc([N+](=O)[O-])c1)c1cnccn1	inactive: 17.6%
Cc1cc(-c2cc(C(=O)O)c3ccccc3n2)c(C)s1	inactive: 1.76%
O=C(N/N=C/c1ccco1)c1cc(-c2ccc(Br)s2)[nH]n1	inactive: 1.24%
CC(C)c1nc(SCC(=O)Nc2nccs2)c2ccccc2n1	inactive: 15.5%
O=C(Nc1nnc([C@H]2C[C@H](O)[C@@H](CO)O2)s1)c1cccc(Cl)c1	inactive: -4.87%
O=C(Nc1ccccc1N1CCOCC1)c1ccccc1NS(=O)(=O)c1ccc(F)cc1	inactive: 18.8%
CCC(C)NC(=O)CCSCCC(=O)NC(C)CC (centres undefined)	inactive: -5.66%
Cc1ccc(-c2nc3c(c(=O)c4ccccc4n3C)c(=O)n2-c2ccccc2)cc1	inactive: 0.543%
CN1CCN(c2ccc(C(=O)c3ccccc3)cc2[N+](=O)[O-])CC1	inactive: 13.5%
